This data set has as its system ATP. The experiment in a line: switch fluorescence ratio, 500 uM ATP over buffer (Cy3 cluster intensity, sum of 5 cycles each) (fold (ratio)); higher = stronger signal-on switching upon ATP binding; sequences stand for … in TCGTCGGCAGCGTCAGATGTGTATAAGAGACAGTTTTTTTTTTTTTTTTTTTTTTTTT…TC. The conditions noted are these: aptamer strand: ATP DNA aptamer (quencher-CACCTGGGGGAGTATTGCGGAGGAAGG + anchor), 100 nM annealed; ATP concentration: 500 uM; one replicate. The method in brief:
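Switching-strand clusters labelled with Cy3 on a modified Illumina MiSeq flow-cell were annealed to 100 nM quencher-labelled ATP aptamer, imaged in selection buffer, and re-imaged after 15 min with 500 uM ATP at 22 °C. This was done over five cycles with NaOH stripping and re-annealing in between. The fluorescence ratio is summed target-cycle over summed buffer-cycle Cy3 intensity per cluster, averaged per switch-domain sequence, excluding clusters outside 100-1000 RFU.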

Values marked as one replicate rest on one cluster of the flow cell; about a third of the high ones do not repeat.
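Also: ATP exposure 15 min at 22 °C before imaging.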

GATCGTGACA: the switch fluorescence ratio was found to be 0.972. For the sequence TATGCGGGTA, the switch fluorescence ratio was determined as 1.03. With GGACGGAGCT the figure was 1.76; with AGTATGAGAG, 0.975; with TACCGCTCT, 1.03.

With ATTCAACGC, the switch fluorescence ratio was 1.09. Next, AAGTTAAGCG: 0.955; GATGAGAAA: 1.07; TAGACAAGCT: 1.02. As for GGGAGTTGTA, the switch fluorescence ratio was 0.954.

Turning to CAAAGGCATC, the switch fluorescence ratio turned out to be 0.989. Next, GGGTTGTTCG: 0.944; TATAGAGTGT: 1.01; CGGAGGTATT: 1.01. With TACACTCAT the figure was 1.01; with CGGAGGCGAC, 1.22; with GGGTAGAGAG, 0.974. With AGAAGTGTGG the figure was 1.01; with ACAGGGTTCC, 1.03. With GGACGGAGAG, the switch fluorescence ratio worked out at 1.04. Next, ATCGACAGAG: 1.04. In the case of AATCCGTCCC, the switch fluorescence ratio came out at 1.29. With GTCGGTACGA the figure was 1.07; with TAGATCAGTA, 1.01; with GAGAATGGTG, 1.01.

For AGAAGTATGT, the switch fluorescence ratio is 1.04. Turning to ATAAGTGTTC, the switch fluorescence ratio came to 0.959.

On to ATTCGTATTC, for which the switch fluorescence ratio stood at 1.02. With GTACTTCGCC the figure was 1.26; with TACTTTTGTC, 1.01; with ATTCGTGATT, 1.03.

With GATAGGAGTT, the switch fluorescence ratio was 1.02.

Turning to CGGCAATATA, the switch fluorescence ratio came to 3.84.

In the case of ACCGTTGCCA, the switch fluorescence ratio is 0.998.

As to ATGTAGGCGC, the switch fluorescence ratio is 0.994.

For TTTGAGAGGA, the switch fluorescence ratio worked out at 1.01.

Regarding TCTTAAAGC, the switch fluorescence ratio was 1.02. As to GCCTGGTTGC, the switch fluorescence ratio worked out at 1.03. Regarding GGACGCCCAT, the switch fluorescence ratio was 1.01. For AGGATTTTTA, the switch fluorescence ratio worked out at 0.975.

Regarding GTATGGTCGC, the switch fluorescence ratio was determined as 1.03. Next, GCTCGGGCGA: 1.01. Turning to TCTTGCTTTT, the switch fluorescence ratio worked out at 1.04.

As to GGTACCTCTG, the switch fluorescence ratio stood at 1.04. With CGGGTGGAGA the figure was 1.03; with GAAGTAAAGG, 0.99.

With CCACCTTCG, the switch fluorescence ratio was determined as 1.73. With ATGAAGGAC the figure was 1.06; with CTAACCCCTT, 1.15.

For the sequence AGGGGATGTT, the switch fluorescence ratio was 1.03. Next, CCCGGTTTGT: 0.982. Next, TGGCACTCCG: 1.03; ACGGTGATAA: 1.01; ATCAGAACGA: 1.03.

As to GTCCGGGGG, the switch fluorescence ratio is 1.01. For CAGTACAAGT, the switch fluorescence ratio was 1.03.

Regarding CAGGATGCAG, the switch fluorescence ratio was 1.04. With ACCACATGT the figure was 1.04; with CGACACTCCT, 1.39.

AAGGGTGCGC: the switch fluorescence ratio came out at 1.02. With AAAATAAATC, the switch fluorescence ratio was 1.05.

As to TCCGGTTGGT, the switch fluorescence ratio was 0.984. Consider TTTATTAGAG, for which the switch fluorescence ratio was found to be 0.973. Next, TCGTACTATC: 1.05; CATCACATGC: 1.16. With CGTAAGGAGA the figure was 0.988; with ATACATCAGC, 1.02; with AAGGGGTGGC, 0.946. As for CAGATGACGA, the switch fluorescence ratio is 1.01.

For TAATAGAGGA, the switch fluorescence ratio worked out at 0.984. Turning to ACACTTAAAC, the switch fluorescence ratio is 1.

Take CGAGGGCTTA: the switch fluorescence ratio is 1.03. On to TAGAGGGTCA, for which the switch fluorescence ratio was determined as 1.01. Next, GCCTTAAGGT: 1.07; CTAATAGGTA: 1.02. For CGGAGTGTTT, the switch fluorescence ratio was found to be 1.04. As for TGCTAGAAAC, the switch fluorescence ratio was 0.969. With ATTTACATGC the figure was 1.03. With ATGTAAAGCT the figure was 1.15; with CGGACCCGAT, 0.958; with ACTATGGGCA, 0.965.

With AGTCAATGGA, the switch fluorescence ratio was 1.01.

GGTCATGGTA: the switch fluorescence ratio was found to be 1.

Regarding AGAACATTTC, the switch fluorescence ratio turned out to be 1.38. With TGCCTAGTTA the figure was 0.983; with GGGATTCCAG, 0.999.

For the sequence CGAAGCTCTT, the switch fluorescence ratio worked out at 1.99. CGTTCGATTG: the switch fluorescence ratio was 1.01.

For the sequence GCCATCATCC, the switch fluorescence ratio is 0.991.

With CGCTACCGTA, the switch fluorescence ratio is 1.09.

TCGTATTCGA: the switch fluorescence ratio amounted to 1.02.

With GGCATTGTAG, the switch fluorescence ratio is 0.997. Next, ATGCTAAAGC: 0.992; GTAATCCAAG: 1.01. Next, GGGCCGCGGA: 1.03; GGTTGCCGAG: 0.952; GACGGGCGGG: 1.

In the case of CGTGTGGTCA, the switch fluorescence ratio worked out at 0.961. Consider CGCAACAGCT, for which the switch fluorescence ratio worked out at 1.28.

Consider CGTTTATGAC, for which the switch fluorescence ratio turned out to be 1.04. Next, TCTGGTCAAC: 1.02; CAAAGCCCTG: 0.972; ATAGGCGCGA: 0.957. Next, CGCGCCTAAC: 1.44; AACTGATGTA: 1; TGGCGAAAAG: 1.02. Regarding CGTGGCGAAA, the switch fluorescence ratio was 1.21.

TTAACCAGTT: the switch fluorescence ratio is 0.989. With CATCGACGGC the figure was 1.22; with ACCCCCAATT, 1.75.

As for ATGGAGATGG, the switch fluorescence ratio turned out to be 0.984. On to GATGCAAGTA, for which the switch fluorescence ratio worked out at 1.09.

GCGTAAGTAA: the switch fluorescence ratio was 0.98.

As to CTTGATGCG, the switch fluorescence ratio stood at 0.965. Next, TTCCTAGGAT: 1.06. With AATCGCTCCG, the switch fluorescence ratio was 1.1. For the sequence ATATATATGT, the switch fluorescence ratio was 1.04. With ATATCCGGCC the figure was 1.06. With AACTACGGTG the figure was 1.17; with GACAGGCTTG, 0.983.
